Laboratory results as given in PubChem BioAssay (NCATS).
Where “and” joins values, the source holds several entries; their conditions need not be identical. Equal values may be shown once. The inconclusive results got no clear call from the source; some entries with a clear call stand among them for comparison. Where the call is inconclusive, the potency comes from a doubtful curve fit. Calls of active or inactive are those of the source. Calls follow the shape of the dose curve; as a rule, active = well fitted curve in the direction sought with a large enough effect; inconclusive = small, poorly fitted or top-dose-only effect, or another doubt; inactive = no such curve, though single readings can be large; an effect the other way counts as inactive or inconclusive.

experiment: qHTS of pediatric cancer cell lines to identify multiple opportunities for drug repurposing: Primary screen for OHS-50 cells (AID 1347103); details: OHS-50 osteosarcoma viability, CellTiter-Glo luminescence, 48 h; series mostly up to 57.3 µM; activity change, negative = cytotoxic: at the top concentration; also: nearly all actives have a fitted effect of over 40% in size;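 as to activity change, negative = cytotoxic: plate controls were DMSO neutral control for no effect and bortezomib positive control for full effect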
Procedure, shortened: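 Cells (500-1,000/well) rested 5 h, then received compounds for 48 h; metabolically active cells were measured by CellTiter-Glo luminescence. Final concentrations spanned up to 46 µM (MIPE, 11-point) or 0.59 nM-46 µM (NPC, 8-point) in primary screens, 11-point in follow-ups.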
Potency is read from the fitted curve at half-maximal effect; tags tell the direction and shape of the fitted curve.

SMILES	activity change, negative = cytotoxic	Potency
Cc1ccc(S(=O)(=O)NC(=O)NC2CCCCCCC2)cc1	inactive: 22.1%	–
CN(C(=O)C(Cl)Cl)c1ccc(OC(=O)c2ccco2)cc1	inactive: 4.87%	–
Clc1ccccc1-c1nc(-c2ccncc2)no1	–	inconclusive: 38.9 µM [cytotoxic, partial curve, poor fit]
CN(C)c1cc(NC(=O)CNC(C)(C)C)c(O)c2c1C[C@@H]1C[C@H]3[C@H](N(C)C)C(=O)C(C(N)=O)=C(O)[C@@]3(O)C(=O)C1=C2O	inactive: -8.43%	–
c1ccc2c(c1)CCc1ccccc1N2	–	inconclusive: 38.9 µM [cytotoxic, single point]
CC(C)(C)COc1ccc(-n2cc(C(=O)O)cn2)cc1C#N	–	inconclusive: 8.63 µM [cytotoxic, partial curve]
C=Cc1c(C)c2cc3[nH]c(cc4nc(cc5nc(cc1[nH]2)C(C)=C5CCC(=O)O)C(CCC(=O)O)=C4C)c(C)c3C=C	inactive: -9.66%	–
N#CC1(c2ccc(NC(=O)c3cccnc3NCc3ccncc3)cc2)CCCC1	–	inconclusive: 6.85 µM [cytotoxic, partial curve]
CC[C@H](C)[C@H](N)C(=O)O	inactive: 15.5%	–
NC(=O)C(c1ccccc1)(c1ccccc1)[C@@H]1CCN(CCc2ccc3c(c2)CCO3)C1	–	inconclusive: 24.6 µM [cytotoxic, single point]
O=c1c(-c2ccc(O)cc2)coc2cc(O)cc(O)c12	–	inconclusive: 4.85 µM [cytotoxic, partial curve, poor fit] and inconclusive: 38.9 µM [cytotoxic, single point]
CN(C)CCCSc1ccccc1NC(=O)/C=C/c1ccccc1	–	inconclusive: 13.8 µM [cytotoxic, partial curve]

experiment: qHTS of pediatric cancer cell lines to identify multiple opportunities for drug repurposing: Primary screen for RD cells (AID 1347104); details: RD rhabdomyosarcoma viability, CellTiter-Glo luminescence, 48 h; series mostly up to 46 µM; activity change, negative = cytotoxic: at the top concentration; also: nearly all actives have a fitted effect of over 55% in size;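 as to activity change, negative = cytotoxic: plate controls were DMSO for no effect and bortezomib for full effect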
Procedure, shortened: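 Plated cells (500-1,000 per well, growth media) were allowed to settle for 5 hours, treated with compound dilutions for 48 hours, then lysed with CellTiter-Glo for 15 min at room temperature before luminescence reading.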

SMILES	activity change, negative = cytotoxic	Potency
O=c1c(-c2ccc(O)cc2)coc2cc(O[C@@H]3O[C@H](CO)[C@H](O)[C@H](O)[C@H]3O)ccc12	inactive: 11.4%	–
OC[C@]1(O)OC[C@@H](O)[C@H](O)[C@@H]1O	inactive: 10%	–
COC(=O)C1=C(C)NC(C)=C(C(=O)OC)C1c1ccccc1[N+](=O)[O-]	–	inconclusive: 16.8 µM [cytotoxic, single point]
CCCCC(CC)CN1CN(CC(CC)CCCC)CC(C)(N)C1 (stereo not drawn)	inactive: -15.3%	–
N#CC1(c2ccc(NC(=O)c3cccnc3NCc3ccncc3)cc2)CCCC1	inactive: -18.2%	–
CN(C)CCCSc1ccccc1NC(=O)/C=C/c1ccccc1	–	inconclusive: 29.9 µM [cytotoxic, single point]
